# From publication PMC7819943, “Rice protein-binding microarrays: a tool to detect cis-acting elements near promoter regions in rice”
# The other results are listed elsewhere or left out.
# Biological target: T1, OsWOX13 (Oryza sativa, UniProt Q5QMM3 1-267)
# T1 sequence: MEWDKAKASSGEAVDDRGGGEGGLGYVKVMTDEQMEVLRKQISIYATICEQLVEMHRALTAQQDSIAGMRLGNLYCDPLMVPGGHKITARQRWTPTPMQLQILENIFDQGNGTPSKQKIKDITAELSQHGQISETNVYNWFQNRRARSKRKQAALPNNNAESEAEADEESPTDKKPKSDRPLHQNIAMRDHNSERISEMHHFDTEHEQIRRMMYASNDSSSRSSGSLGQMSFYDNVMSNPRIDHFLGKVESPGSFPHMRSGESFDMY
# Experiment: protein-binding microarray (RPBM); PBS, 2% BSA, 51.3 ng/ul salmon testes DNA, 50 uM zinc acetate, 200 nM TF, 25 C, 1 h; high values mean tight binding
# Conditions: protein: recombinant; tags: N-terminal polyhistidine and DsRed monomer fusion (pET32a); label: CyDye5-dUTP incorporated in the synthesized complementary strand; 3' TTTTT single-stranded linker to array surface; dsDNA, one strand shown
# Procedure, shortened: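 The binding signal for each feature is its fluorescence intensity in arbitrary units. An Axon 4000B scanner was used to read a custom Agilent array that had been made double-stranded with Cy5-dUTP primer extension, blocked with 2% BSA, incubated at 25 °C for 1 h with 200 nM protein in PBS, 2% BSA, salmon testes DNA and 50 µM zinc acetate, and washed. The protein was an N-terminal polyhistidine–DsRed transcription factor fusion from E. coli BL21-CodonPlus, purified on Ni–NTA.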
row,Sequence,binding signal
1,GGAGAATAATTGAAGAGGGAGCAAACAGATTTGAAGCGGTCGGAGTCACCTAGTGCAG,21000 fluorescence intensity (a.u.)
2,TGAGAATCAATCAATTAACTTAAATTGCTTCCTATAAAATCGGAGTCACCTAGTGCAG,37700 fluorescence intensity (a.u.)
3,TTGAGTCTAATTAGTCCATGATTAGCCATAAGTGCTACAGCGGAGTCACCTAGTGCAG,30600 fluorescence intensity (a.u.)
4,CACGTATAAATTGCACTGTGTACTTAGACATCCATAACGTCGGAGTCACCTAGTGCAG,4920 fluorescence intensity (a.u.)
5,ACATGTTAATTTTAACATTGACTAATAGTAAGTAGTGAGCCGGAGTCACCTAGTGCAG,25000 fluorescence intensity (a.u.)
6,CATGCTTAACAGCGTAATTAAGCTTGCATTGCTAATCCTGCGGAGTCACCTAGTGCAG,14000 fluorescence intensity (a.u.)
7,AGCAGGAGATTGAGCTTAATGAAGATGAACCTGCTTTCTTCGGAGTCACCTAGTGCAG,14400 fluorescence intensity (a.u.)
8,TGCCAACGTAATAGACAGTACGGTACAGAACATGTCAAATCGGAGTCACCTAGTGCAG,3410 fluorescence intensity (a.u.)
9,GACCAATTAGTCATTAGTACTCCCAATTTTAAGCTAAAACCGGAGTCACCTAGTGCAG,7130 fluorescence intensity (a.u.)
10,TAAAATTTCTGCAATTTTGTTTGAGAATTCAAATTTTGTTCGGAGTCACCTAGTGCAG,3310 fluorescence intensity (a.u.)
11,ATCTTAATTAAATCATTCTACATAAAATCCTCGATCCGACCGGAGTCACCTAGTGCAG,32700 fluorescence intensity (a.u.)
12,GTTTTGTATGTAATTATTGCTAGTGGATGATGATGTATCACGGAGTCACCTAGTGCAG,5370 fluorescence intensity (a.u.)
13,ATGTGAAATTACTAACTTACCCTTGCAATATAATCTGGTTCGGAGTCACCTAGTGCAG,3290 fluorescence intensity (a.u.)
14,AACTCAAGTAATCATGCGTTAATGGTTTTATCGTTTTACGCGGAGTCACCTAGTGCAG,3310 fluorescence intensity (a.u.)
15,TATGTGGATAATTGCAGTTCATCCACGTATGACAACTGGGCGGAGTCACCTAGTGCAG,4700 fluorescence intensity (a.u.)
16,ACTATAACTGTCATAATGTTTCAATTAATTTCTCAGCATCCGGAGTCACCTAGTGCAG,20800 fluorescence intensity (a.u.)
17,ACCTCTTGCAATTAATAGCTTGACTTTGACTTTGACTTCCCGGAGTCACCTAGTGCAG,7050 fluorescence intensity (a.u.)
18,TCAAATTATCTTCAATCTGTTGGTTTACCAGGGAAAACCACGGAGTCACCTAGTGCAG,14500 fluorescence intensity (a.u.)
19,GCATGATCTAGATAATTTATGTGCTACACAATTTGCCTCTCGGAGTCACCTAGTGCAG,22000 fluorescence intensity (a.u.)
20,CTTTATTATCCAAATTACTTTAATTACAACTCTTCGTTTTCGGAGTCACCTAGTGCAG,10100 fluorescence intensity (a.u.)
21,TGATTTATTTATGTAATAAATTAAATCATTATATGCCCATCGGAGTCACCTAGTGCAG,5110 fluorescence intensity (a.u.)

row,Sequence,binding signal
1,ATTAATCATGTGCTAATGGACCGCTCCGTTTTCCGTGCGCCGGAGTCACCTAGTGCAG,9930 fluorescence intensity (a.u.)
2,TAAAATTTATAATTTATAAATATAATATCGTGCCCATCTTCGGAGTCACCTAGTGCAG,14100 fluorescence intensity (a.u.)
3,GCCCTCACCATCATCATCATCATCAAGATAGCCAAAATGACGGAGTCACCTAGTGCAG,3300 fluorescence intensity (a.u.)
4,TGGACACTTAAATAATGATTACTATACGCAATTGACAAGCCGGAGTCACCTAGTGCAG,6040 fluorescence intensity (a.u.)
5,CCTTATAAATTGCGCACAGATTGGCTCGTGTTCTTCGCACCGGAGTCACCTAGTGCAG,41500 fluorescence intensity (a.u.)
6,GTGATTAATTTACTGTATTTGAAATATGGCATAAAGAAATCGGAGTCACCTAGTGCAG,28500 fluorescence intensity (a.u.)
7,CCTAATTAATCCGTCATTAACAAATGTTTACTGTAGCACCCGGAGTCACCTAGTGCAG,44800 fluorescence intensity (a.u.)
8,AAATAAGATTGATAGAACCGTAACTCTAGAAGGTGAGCTCCGGAGTCACCTAGTGCAG,19100 fluorescence intensity (a.u.)
9,TTACCATTAAATTAGATCCATTTAAAAGGTCCCCGCTTCACGGAGTCACCTAGTGCAG,10200 fluorescence intensity (a.u.)
10,CGCCAAATTTAAGTCTTCCTTTACCTACCTTCTCCTTGCTCGGAGTCACCTAGTGCAG,5780 fluorescence intensity (a.u.)
11,CCACATGATTAATTAAGTTTTAATTATTATAAATTTAAAACGGAGTCACCTAGTGCAG,28600 fluorescence intensity (a.u.)
12,TCAGATTACTGTGATAGAACCAATTCAATTCCGTTTATCTCGGAGTCACCTAGTGCAG,8910 fluorescence intensity (a.u.)
13,TGGGATCCAATCATCTTTCCATTTGGTGGGCCAAAGTAGCCGGAGTCACCTAGTGCAG,9950 fluorescence intensity (a.u.)
14,CTGTGAAATTAAAGGTCCAATTAGGCCCAACAGTGCAGCACGGAGTCACCTAGTGCAG,7750 fluorescence intensity (a.u.)
15,CCTGCTTAATTATTGCCTAGGATGCTCTGTCATCCTAATTCGGAGTCACCTAGTGCAG,8140 fluorescence intensity (a.u.)
16,TACATAAGTGACGCATGATTTTCTAGAACAGTTTCTATAACGGAGTCACCTAGTGCAG,3180 fluorescence intensity (a.u.)
17,TGGTTAATATGATTATTAGTCAAAAGTTATCGAGTTTAATCGGAGTCACCTAGTGCAG,6570 fluorescence intensity (a.u.)
18,CTGTGTAATTTGGACTGGGTCTGGAGGGCAAGATTGGAAACGGAGTCACCTAGTGCAG,5690 fluorescence intensity (a.u.)
19,CACGCTTGATTAATCATTCTGTAAGGATTATATATACCCCCGGAGTCACCTAGTGCAG,39400 fluorescence intensity (a.u.)
20,GCTACTTGCATCAACTAATTGACACTCTGCAGTATCCCGTCGGAGTCACCTAGTGCAG,11600 fluorescence intensity (a.u.)
21,AGACCAAATGATTTGTTTCATGGTTTTGTGATATTATGGACGGAGTCACCTAGTGCAG,15200 fluorescence intensity (a.u.)
